Results reported in the RNAGym collection of RNA variant scans (doi:10.7554/elife.90254).
The source gives no read counts; variants with many changes may rest on few reads.

B1: LINE1-mini (parent)
chain: GGCAGAGCUCAACACAGCGUGGCAAAGUGGCUGUGGCUAGACUGCC

Variants of: B1
Test: self-cleavage, relative activity (ratio to wild type); higher = more cleavage; in vitro, sequencing; the parent is a self-cleaving ribozyme

Question: Which self-cleavage does the source give for GGCAGAGCUCAACACAGCGAGACAAAGAGGCUGUGGCUAGACUGCC [U20A G22A U28A] here?
Answer: 0.39

Question: For GGCAGAGCUCAACACAGCGAGGCAAAUUGGCUUUGGCUAGACUGCC [U20A G27U G33U], which self-cleavage is on record?
Answer: 0.02

Question: With GGCAGAGCUCAACACAGCGCGGCAACGUGGCUGUGGCUACACUGCC [U20C A26C G40C] as the variant, how does the self-cleavage read?
Answer: 0.02

Question: For GGCAGAGCUCAACACAGCGCGUCAAAGUGGCUGUGGCUAUACUGCC [U20C G22U G40U], which self-cleavage is on record?
Answer: 0.11

Question: For GGCAGAGCUCAACACAGCGCGGCAAAGUGGCUGUGGCUAGAGUGUU [U20C C42G C45U C46U], which self-cleavage is on record?
Answer: 0.03

Question: Which self-cleavage does the source give for GGCAGAGCUCAACACAGCGCGGUAAAGUGGCUGUGGCUAGACUGAC [U20C C23U C45A] here?
Answer: 0.06

Question: Which self-cleavage does the source give for GGCAGAGCUCAACACAGCGAGGCAAAGUGGCCGUGGCUCGAUUGCC [U20A U32C A39C C42U] here?
Answer: 0.05

Question: For GGCAGAGCUCAACACAGCGCGGCUAAGUGGCUCAGGCUAGCCUGCC [U20C A24U G33C U34A A41C], which self-cleavage is on record?
Answer: 0.05

Question: For GGCAGAGCUCAACACAGCGAAGCUAAGUGGGUGUGGCUAGACUGCC [U20A G21A A24U C31G], which self-cleavage is on record?
Answer: 0.02

Question: For GGCAGAGCUCAACACAGCGAGGCAAAGUGGCUGUGGCGAGACUGCA [U20A U38G C46A], which self-cleavage is on record?
Answer: 0.01

Question: With GGCAGAGCUCAACACAGCGAGGCAAAGUGGCUAUUGCUAGACUCCC [U20A G33A G35U G44C] as the variant, how does the self-cleavage read?
Answer: 0

Question: Which self-cleavage does the source give for GGCAGAGCUCAACACAGCGAGGCAAAGUGGCUGUGGCUAUUCUGCC [U20A G40U A41U] here?
Answer: 0.1

Question: Which self-cleavage does the source give for GGCAGAGCUCAACACAGCGCGGGAAAGUGGCUGCGGCUAAACUGCC [U20C C23G U34C G40A] here?
Answer: 0.04

Question: With GGCAGAGCUCAACACAGCGCGGCAGAGGGGCUGUGGCUAGACAGCC [U20C A25G U28G U43A] as the variant, how does the self-cleavage read?
Answer: 0.08

Question: For GGCAGAGCUCAACACAGCGAGGCAAAGUGGCUGAGUCUAGACUGCC [U20A U34A G36U], which self-cleavage is on record?
Answer: 0.04

Question: For GGCAGAGCUCAACACAGCGCGGGUAAGUGGCUGUGGCUAGACUGCC [U20C C23G A24U], which self-cleavage is on record?
Answer: 0.15

Question: Which self-cleavage does the source give for GGCAGAGCUCAACACAGCGCGGCAAAGUAGCGAUGGCUAGACUGCC [U20C G29A U32G G33A] here?
Answer: 0.08

Question: Which self-cleavage does the source give for GGCAGAGCUCAACACAGCGCGGCAAAUUGGCUGUGGCUAAACUGCC [U20C G27U G40A] here?
Answer: 0.07

Question: With GGCAGAGCUCAACACAGCGAGGCAAAGUGGCUGUGGCUAGACUUCU [U20A G44U C46U] as the variant, how does the self-cleavage read?
Answer: 0.06

Question: For GGCAGAGCUCAACACAGCGCAGCAAAGUGGAUGUGGCUAGACUGCC [U20C G21A C31A], which self-cleavage is on record?
Answer: 0.35

Question: For GGCAGAGCUCAACACAGCGCGGCAAAGUAGCUCUGGUUAGACUGCC [U20C G29A G33C C37U], which self-cleavage is on record?
Answer: 0.02

Question: For GGCAGAGCUCAACACAGCGAGACAAAGUGGCUGUGGCUAGACUGCU [U20A G22A C46U], which self-cleavage is on record?
Answer: 0.55

Question: Which self-cleavage does the source give for GGCAGAGCUCAACACAGCGAUGCACAGUGGCUAUGGCGAGACUGCC [U20A G21U A25C G33A U38G] here?
Answer: 0

Question: With GGCAGAGCUCAACACAGCGCGGCAGUGUGGCUGUAGCUAGACUGCC [U20C A25G A26U G35A] as the variant, how does the self-cleavage read?
Answer: 0.03

Question: Which self-cleavage does the source give for GGCAGAGCUCAACACAGCGAGGCAAAGAGGCUGUGGGUAGACUGCC [U20A U28A C37G] here?
Answer: 0

Question: Which self-cleavage does the source give for GGCAGAGCUCAACACAGCGAUGCAAAGUGGCCGUGGCUAGACUGCC [U20A G21U U32C] here?
Answer: 0.85

Question: For GGCAGAGCUCAACACAGCGCGGUACAGUGGCUGUGGCUAGACUGUC [U20C C23U A25C C45U], which self-cleavage is on record?
Answer: 0.26

Question: With GGCAGAGCUCAACACAGCGAGGCAAAGUGGCUGUGCCUACACUACC [U20A G36C G40C G44A] as the variant, how does the self-cleavage read?
Answer: 0.02

Question: With GGCAGAGCUCAACACAGCGCAGCAAAGUGGCUGUUGCUAGACUGCC [U20C G21A G35U] as the variant, how does the self-cleavage read?
Answer: 0.09

Question: Which self-cleavage does the source give for GGCAGAGCUCAACACAGCGAUGGAAAUUGGCUAUGGCUAGACUGCC [U20A G21U C23G G27U G33A] here?
Answer: 0.2

Question: Which self-cleavage does the source give for GGCAGAGCUCAACACAGCGCGACAAAGUGGCUGUGUUUAGACUGCC [U20C G22A G36U C37U] here?
Answer: 0

Question: Which self-cleavage does the source give for GGCAGAGCUCAACACAGCGAAGCAAGGUGGCUGUGGUUAGACUGCC [U20A G21A A26G C37U] here?
Answer: 0

Question: With GGCAGAGCUCAACACAGCGCAGCAAAGUGGCUGUGGCUAGACUGCU [U20C G21A C46U] as the variant, how does the self-cleavage read?
Answer: 0.38

Question: Which self-cleavage does the source give for GGCAGAGCUCAACACAGCGAGGCAAAGUGGCUUUGGCUAGAAUGCC [U20A G33U C42A] here?
Answer: 0.06

Question: With GGCAGAGCUCAACACAGCGCGUCAAAGUGGCUGUGGAUAGAAUGCC [U20C G22U C37A C42A] as the variant, how does the self-cleavage read?
Answer: 0.03

Question: For GGCAGAGCUCAACACAGCGCGGUAAAGUGGCUGUCACCAUACUGCC [U20C C23U G35C G36A U38C G40U], which self-cleavage is on record?
Answer: 0.01

Question: With GGCAGAGCUCAACACAGCGAUGCAAAGUGGCUGUGGUUAGAUCGCC [U20A G21U C37U C42U U43C] as the variant, how does the self-cleavage read?
Answer: 0.01

Question: For GGCAGAGCUCAACACAGCGCGGCCAAGCGUUUAUGGCUAGACUGCC [U20C A24C U28C G30U C31U G33A], which self-cleavage is on record?
Answer: 0.08

Question: With GGCAGAGCUCAACACAGCGCGGCAGAGUGGCUGUUGCUAGACUCCC [U20C A25G G35U G44C] as the variant, how does the self-cleavage read?
Answer: 0.05

Question: With GGCAGAGCUCAACACAGCGCGGAAAAGUGGCUGUGGAUAGACUCCC [U20C C23A C37A G44C] as the variant, how does the self-cleavage read?
Answer: 0.04

Question: With GGCAGAGCUCAACACAGCGAGGCAAAUUGACUGUGGCUAGACUGCC [U20A G27U G30A] as the variant, how does the self-cleavage read?
Answer: 0.81

Question: With GGCAGAGCUCAACACAGCGAGGCAAAGUGGCUGUGGCUAUACCGCC [U20A G40U U43C] as the variant, how does the self-cleavage read?
Answer: 0.08

Question: For GGCAGAGCUCAACACAGCGACGCAAAGUGGCUGAGGCUAGACUGCC [U20A G21C U34A], which self-cleavage is on record?
Answer: 0.51

Question: Which self-cleavage does the source give for GGCAGAGCUCAACACAGCGAGGCAAAGUUGCUGUGGCUACACUGCC [U20A G29U G40C] here?
Answer: 0.04

Question: Which self-cleavage does the source give for GGCAGAGCUCAACACAGCGCGGAAAAGUGGCUGUGGAUAGACUGCC [U20C C23A C37A] here?
Answer: 0.03

Question: For GGCAGAGCUCAACACAGCGAGGCAAAGUGGCUUUGGCUAAACUGCC [U20A G33U G40A], which self-cleavage is on record?
Answer: 0.02

Question: For GGCAGAGCUCAACACAGCGAGGCAAAGUGUCUGUGGCUAGACUGAC [U20A G30U C45A], which self-cleavage is on record?
Answer: 0.32

Question: With GGCAGAGCUCAACACAGCGCGGCAAACUGGCUGUGACUAGACUGCC [U20C G27C G36A] as the variant, how does the self-cleavage read?
Answer: 0.08

Question: With GGCAGAGCUCAACACAGCGCCGCAAAGUGGCUGUGGCUAGACUGUC [U20C G21C C45U] as the variant, how does the self-cleavage read?
Answer: 0.64

Question: With GGCAGAGCUCAACACAGCGAGGCAAAUUGGCUGUGGCUACACUGGC [U20A G27U G40C C45G] as the variant, how does the self-cleavage read?
Answer: 0.02

Question: Which self-cleavage does the source give for GGCAGAGCUCAACACAGCGCGGUAAAGUGGCUGUGGCUAGAGUGCC [U20C C23U C42G] here?
Answer: 0.04

Question: Which self-cleavage does the source give for GGCAGAGCUCAACACAGCGCUGCAAAGUGACUGAGGCUAGACUGCC [U20C G21U G30A U34A] here?
Answer: 0.19

Question: With GGCAGAGCUCAACACAGCGCCGCAAAGUGGCUGUGGCUAGACCGCC [U20C G21C U43C] as the variant, how does the self-cleavage read?
Answer: 0.08

Question: Which self-cleavage does the source give for GGCAGAGCUCAACACAGCGAGUCAAAGUGGCUGUUGCUAGACUGAA [U20A G22U G35U C45A C46A] here?
Answer: 0.09

Question: Which self-cleavage does the source give for GGCAGAGCUCAACACAGCGACGCAAAGUGGCUGUGGCUAGAAUGCC [U20A G21C C42A] here?
Answer: 0.06

Question: With GGCAGAGCUCAACACAGCGCGGCAAAGUGGGUUUGGCACGACUGAC [U20C C31G G33U U38A A39C C45A] as the variant, how does the self-cleavage read?
Answer: 0
